Results taken from PubChem BioAssay AID1645887 (National Center for Advancing Translational Sciences (NCATS), 2021).
Several values for one entry are separate records, joined by “and”; a condition that tells them apart may be missing. Identical values can stand only once. Screen size: about 16,000 compounds; about 40 (0.2%) were called active. Roughly 1% stayed inconclusive and do not appear here. Calls follow the shape of the dose curve; as a rule, active = well fitted activation curve with a large enough effect; inconclusive = small, poorly fitted or top-dose-only effect, or another doubt; inactive = no such curve, though single readings can be large or run the other way. The list shows a part of the results.

What follows are compounds tested against Rap guanine nucleotide exchange factor 4 (Homo sapiens) (UniProt Q8WZA2) (assay: Validation qHTS for agonist of cAMP-regulated guanine nucleotide exchange factor 4 (EPAC2)). Conditions: EPAC2 Rap1B BODIPY-GDP exchange, fluorescence; activation: active compounds read high.
Sequence of UniProt Q8WZA2 (Q8WZA2 whole entry, looked up): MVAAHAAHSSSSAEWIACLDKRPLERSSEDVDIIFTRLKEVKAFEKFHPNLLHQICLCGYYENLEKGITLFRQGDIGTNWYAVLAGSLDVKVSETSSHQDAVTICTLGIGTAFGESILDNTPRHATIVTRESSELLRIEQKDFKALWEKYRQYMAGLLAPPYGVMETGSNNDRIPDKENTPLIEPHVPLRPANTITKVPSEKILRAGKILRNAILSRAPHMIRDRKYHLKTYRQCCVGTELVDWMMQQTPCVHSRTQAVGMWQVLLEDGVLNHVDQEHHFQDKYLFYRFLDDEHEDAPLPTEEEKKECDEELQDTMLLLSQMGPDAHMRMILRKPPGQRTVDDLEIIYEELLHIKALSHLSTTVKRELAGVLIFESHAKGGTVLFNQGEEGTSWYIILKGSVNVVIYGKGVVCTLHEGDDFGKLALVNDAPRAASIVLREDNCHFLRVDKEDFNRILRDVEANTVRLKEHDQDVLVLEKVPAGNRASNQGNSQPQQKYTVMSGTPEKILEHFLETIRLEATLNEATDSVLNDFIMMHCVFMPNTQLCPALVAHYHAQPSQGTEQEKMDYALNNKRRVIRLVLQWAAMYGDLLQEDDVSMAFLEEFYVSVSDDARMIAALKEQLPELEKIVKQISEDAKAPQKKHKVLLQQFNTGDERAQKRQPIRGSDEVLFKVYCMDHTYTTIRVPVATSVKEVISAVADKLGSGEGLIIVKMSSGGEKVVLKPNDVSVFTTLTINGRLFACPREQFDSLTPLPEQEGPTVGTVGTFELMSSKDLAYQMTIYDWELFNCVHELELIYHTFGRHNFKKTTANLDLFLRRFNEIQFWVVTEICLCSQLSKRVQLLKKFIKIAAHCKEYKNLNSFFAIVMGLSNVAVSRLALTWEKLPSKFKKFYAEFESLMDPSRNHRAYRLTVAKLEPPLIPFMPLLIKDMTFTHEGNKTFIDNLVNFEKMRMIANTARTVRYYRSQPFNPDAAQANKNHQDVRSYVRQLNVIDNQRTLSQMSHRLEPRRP
Source text: Principle Investigator: Xiaodong Cheng Ph.D.
The University of Texas Medical Branch, […], TX
In multi-cellular eukaryotic organisms, the effects of cAMP are transduced by two ubiquitously-expressed intracellular cAMP receptors, the classic protein kinase A/cAMP-dependent protein kinase (PKA/cAPK) and the more recently discovered exchange protein directly activated by cAMP/cAMP-regulated guanine nucleotide exchange factor (EPAC/cAMP-GEF). Both PKA and EPAC are ubiquitously expressed in all tissues, and an increase in intracellular cAMP levels will lead to the activation of both PKA and EPAC. Therefore, careful dissections of the individual role and relative contribution of EPAC and PKA within the overall cAMP signaling in various model systems are critical for further elucidating the mechanism of cAMP signaling. To date no EPAC-specific antagonists and agonist, as well as isoform-specific agonists have been reported, and developing EPAC-specific pharmacological probes to determine the physiological functions that EPAC play in the overall cAMP-mediated signaling remains a major challenge within the research field. Furthermore, identified regulators of EPAC may lead to new mechanism-based therapeutic strategies specifically targeting the EPAC / cAMP-signaling components as EPAC has been implicated to play important roles in major human pathological conditions such as diabetes, heart disease, and cancer.
This qHTS will be used to screen the Molecular Libraries Small Molecule Repository (MLSMR) as a concentration-titration series using the NCGC unique quantitative screening (qHTS) platform to find activators for EPAC1. In addition, this assay will also be used as a counterscreen for the EPAC2 qHTS. This fluorescent based assay is developed and validated for EPAC1 that measures exchange using EPAC effector Rap1 complex with BODIPY-GDP, a GDP analog with a tethered fluorophores. Activators are identified by monitoring the change in fluorescence signal as the exchanged free BODIPY-GDP has a reduced fluorescence compared to Rap1-bound BODIPY-GDP. Increase in signal (activation) is the desired outcome for the EPAC1 agonist while no activity in this assay is desired for the EPAC2 agonist counterscreen.
[1] de Rooij, J., Zwartkruis, F. J., Verheijen, M. H., Cool, R. H., Nijman, S. M., Wittinghofer, A., and Bos, J.L. (1998) Nature 396, 474-477.
Briefly, three uL of reagents (100 nM EPAC2, 250 nM RAP1B-BODIPY-GDP, 50 uM GDP) were dispensed into a 1536-well Greiner black solid-bottom medium binding assay plate. Controls and test compounds (23 nL) were transferred to the plate via a Kalypsys pin tool equipped with a 1536-pin array. The plates were centrifuged at 1,000 rpm for 15 seconds followed by 5 minute incubation at room temperature. The assay plates were read at 5 minute intervals for 30 minutes in the ViewLux plate reader using 480nm excitation and 540nm emission filters. The results were normalized to the agonist positive control of 6.5 mM cAMP.
% is scaled to controls: 0 for no effect and ±100 for the full control effect.
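Also: exchange makes BODIPY-GDP fluorescence drop when released from Rap1B; series mostly up to about 150 µM.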

activation, inactive:
COc1ccc(C(=O)N2CCOc3ccc(CN4CCN(c5ccccn5)CC4)cc3C2)o1 -22.5%
O=S1(=O)CCOCCCN1Cc1cccc(C(F)(F)F)c1 -12.6%
CC(=O)N1CCC[C@@]2(CCN(Cc3nccs3)C2)C1 -22.7%
O=C(C[N+]1(CCc2ccccc2)CCOCC1)c1ccccc1 -0.259%
CNCC[C@H](Oc1ccccc1OC)c1ccccc1 -18.3%
Fc1ccc(C(c2ccc(F)cc2)N2CCN(C/C=C\c3ccccc3)CC2)cc1 12.9%
NC(=O)Oc1ccc(Cc2ccccc2)cc1 -14.7%
CCCCCCCCCCCCSCCOCCO -28.1%
C[C@@H](NC(=O)/C(C#N)=C/c1ccc(O)c(O)c1)c1ccccc1 -9.76% and -16%
COc1ccc(-c2nc3cnc(N4CCNCC4)nc3n(-c3ccccc3)c2=O)cc1 -16%
COc1cccc(Cn2c(=O)c(-c3ccccc3)nc3cnc(N(C)C)nc32)c1 -20.7%
O=C(c1csnn1)N1CCC2(CC1)CCN(c1ccccc1)CC2 -6.88%
Cc1cccc(CNC(=O)c2cnn(-c3ncc4c(n3)-c3ccccc3CC4)c2C2CC2)n1 -31.5%
CC(=O)OCC(=O)[C@@]1(O)[C@H](C)C[C@H]2[C@@H]3C[C@H](F)C4=CC(=O)C=C[C@]4(C)[C@H]3[C@@H](O)C[C@@]21C -9.07%
Cc1c[nH]c(=O)n(CCCN2CCN(c3ccccc3OCC(F)(F)F)CC2)c1=O -22.5%
CCCCC/C=C\C/C=C\C/C=C\C/C=C\CCCC(=O)O[C@H](COCCCCCCCCCCCCCCCC)COP(=O)([O-])OCC[N+](C)(C)C -13.8%
COc1ccc2c(c1)OC(C)CN(CCNC(=O)c1csc(-c3cccs3)n1)C2 (configuration not stated) -8.01%
COCC(=O)N1CCC2(CC1)CN(Cc1nccs1)C2 -20.2%
C[C@]12CC[C@@H]3c4ccc(O)cc4C[C@@H](CCCCCCCCCS(=O)CCCC(F)(F)C(F)(F)F)[C@H]3[C@@H]1CC[C@@H]2O (some centres not stated) -40.3% and -31.8%
COc1ccc2cc1Oc1ccc(cc1)C[C@H]1c3cc(c(OC)cc3CCN1C)Oc1c(OC)c(OC)cc3c1[C@H](C2)N(C)CC3 -2.76% and -13.1% and 0.517%
O=C(c1cccc(F)c1)N1CCC[C@@]2(CCN(C(c3ccccc3)c3ccccc3)C2)C1 -35.4%
CCC(C)[C@H]1COCCS(=O)(=O)N1Cc1ccccc1F (some centres not stated) -24.9%
O=C(C[N+]12CCCc3cccc(c31)CCC2)c1ccc(Cl)c2ccccc12 -14.7%
Cc1c(C)n(CCN(C)C)c2ccc(C(=O)OCCN(C)C)cc12 -14.9%
COc1cc(OC)c2c(c1)OC(c1ccccc1)CC2=O (configuration not stated) 3.64%
N#Cc1cccc(-c2ccc3ncnc(NCc4ccccc4)c3c2)c1 -9.77%
CC[C@H]1OC(=O)[C@H](C)C(=O)[C@H](C)[C@@H](O[C@@H]2O[C@H](C)C[C@H](N(C)C)[C@H]2O)[C@](C)(OC)C[C@@H](C)C(=O)[C@H](C)[C@H]2N(CCCCn3cnc(-c4cccnc4)c3)C(=O)O[C@]12C -24.4% and -39%
COC(=O)c1ccc(CN2CCOc3ccc(CN4CCC(O)(c5cccnc5)CC4)cc3C2)cc1 -2.32%
CCCCOc1cc(C(=O)NCCN(CC)CC)c2ccccc2n1 -0.398% and 18.4%
NC(N)=NCC1COC2(CCCCC2)O1 (configuration not stated) -8.72%
Cn1c(=O)c(-c2ccc(F)cc2)nc2cnc(Nc3ccccc3)nc21 -3.77%
C/C(=C(\CCOC(=O)c1ccccc1)SS/C(CCOC(=O)c1ccccc1)=C(/C)N(C=O)Cc1cnc(C)nc1N)N(C=O)Cc1cnc(C)nc1N 6.07%
CC(=O)OCC1OC(n2cnc3c(=O)[nH]cnc32)C(OC(C)=O)C1OC(C)=O (configuration not stated) -9.19%
CC(C)C1=CC2=CC[C@@H]3[C@@](C)(C(=O)O)CCC[C@]3(C)C2CC1 (some centres not stated) -0.645%
COC(=O)[C@H](CC(C)C)NS(=O)(=O)NC(=O)OC(C)(C)C -11.2%
CCNc1ncc2nc(C)c(=O)n(C[C@H]3CCCO3)c2n1 4.79%
CCC1(C2CCN(C(=O)c3coc4c3C(=O)CCC4)CC2)NC(=O)N(CCc2scnc2C)C1=O (configuration not stated) -9.81%
COc1ccc(CN2CC[C@H]3C=CC[C@@H](C(=O)NCCc4ccccc4)[C@H]3C2=O)cc1OC -27.9%
O=C1CCc2cc(OCCCCc3nnnn3C3CCCCC3)ccc2N1 -17.1% and 1.43% and -12.7%
CCS(=O)(=O)CCn1c([N+](=O)[O-])cnc1C -23.2% and -0.787%
Cc1noc(C)c1-c1nc(NC2CCNCC2)c2ccccc2n1 5.23%
COc1cc(=O)n2c(c1C(=O)N(C)Cc1nccs1)CCN(Cc1ccc(F)c(F)c1)CC2 -27.8%
Cc1ccc(C(=O)Nc2cccc(-c3nc(CNC(=O)c4ccc5ccccc5n4)c(C)o3)c2)s1 1.07%
CCn1nc(C)c(CN2Cc3ccccc3OC(c3ccccc3OC)C2)c1C (configuration not stated) 2.55%
O=C(O)c1ccccc1-c1ccc(C(F)(F)F)cc1 -12.6%
Nc1ncnc2c1ncn2CCOCP(=O)(O)O -10.5%
O=C(c1cccc(F)c1)N1CCC[C@@]2(CCN(Cc3ccccc3)C2)C1 -0.52%
CC(C)CN1CCCC2(CCN(C(=O)c3ccco3)CC2)C1 -13.2%
Nc1nc2c(c(=O)[nH]1)N(C=O)C(CNc1ccc(C(=O)NC(CCC(=O)O)C(=O)O)cc1)CN2 (configuration not stated) 1.39%
O=C(Nc1ccccc1)N1CCCC2(CCNCC2)C1 -6.47%
CN(C)c1ccc(-c2nc(NCc3cccnc3)c3ccccc3n2)cc1 -1.51%
CCCCCCCC/C=C\CCCCCCCC(=O)NCCc1ccc(O)c(O)c1 -106%
Cn1cccc1C(=O)N1CCC2(CC1)CCN(c1ccc(-c3ccccc3)cc1)CC2 -9.07%
CN(Cc1ccco1)c1cc(-c2ccc3c(c2)OCO3)ncn1 -14%
O=C1C(c2ccccn2)=[N+]([O-])c2ccccc21 1.59%
Cc1nc(NS(=O)(=O)c2ccc(N)cc2)nc(C)c1Br -5.41%
CC(=O)N(CC(C)C(=O)O)c1c(I)cc(I)c(N)c1I (configuration not stated) -19.7%
CC(=O)OCC1=C(C(=O)O)N2C(=O)[C@@H](NC(=O)CSc3ccncc3)[C@H]2SC1 0.586%
CCNc1ncc2nc(-c3ccc(F)cc3)c(=O)n(Cc3ccc(F)cc3)c2n1 -1.53%
COc1ccccc1-c1cc(=O)c2cc(O)ccc2o1 -5.44%
Cn1c(=O)c(CCc2ccccc2)nc2cnc(N3CCOCC3)nc21 -1.68%
Cc1ccc2c(n1)Oc1ccc(C(C)C(=O)OCC(=O)N(C)C)cc1C2 (configuration not stated) -15.1% and -4.86%
O=C(O)COc1ccc(OCCNC[C@@H](O)COc2ccccc2)cc1 -11.3%
Nc1nc2[nH]c(=O)c(=O)[nH]c2c(=O)[nH]1 -3.75%
COc1ccc2[nH]cc(CCNc3ccnc(-c4ccc5c(c4)OCO5)n3)c2c1 1.31%
CCCCCCCCCCCCCCC(C(=O)OC)C(O)(CC(=O)OC)C(=O)OC (configuration not stated) -44.9%
CCCCCCCCCCCCCCNCCO -19.2%
N#Cc1cccc(NC(=O)N2CC[C@@]3(CCCN(C(=O)c4csnn4)C3)C2)c1 -10.4%
COC(=O)c1c(-c2cc(OC)c(OC)c(OC)c2)c2ccnc(OCc3ncccn3)c2c(=O)n1Cc1ccnc(C)c1 7.25%
CCCCN1CC[C@H]2C=CC[C@@H](C(=O)N3CCN(c4ccccc4)CC3)[C@H]2C1=O 0.637%
OC[C@H]1O[C@@H](n2cnc3c(NC4CCCCC4)ncnc32)[C@H](O)[C@@H]1O 9.24% and -13.9%
O=C(Nc1ccccc1)N1CC[C@@]2(CCCN(C(=O)c3cnccn3)C2)C1 5.6%
COc1cccc(-c2nc(NCc3cnc(C)cn3)c3ccccc3n2)c1 4.25%
COc1cc(C(=O)NC2CCCNC2)cc(OC)c1OC (configuration not stated) -8.98%
O=C(c1cnn(-c2nccc(-c3ccccc3F)n2)c1C1CC1)N1CCN(CCO)CC1 -4.66%
Oc1ccc2c(c1)OCC1(O)Cc3cc(O)c(O)cc3C21 (configuration not stated) -5.97%
C=C1CCC(O)C/C1=C\C=C1/CCCC2(C)C1CCC2C(C)CCCC(C)C (configuration not stated) -52.7%
c1cncc(-c2ccc3ncnc(NC4CCNCC4)c3c2)c1 -1.31%
Cc1nc2cnc(N3CCN(C)CC3)nc2n(C2CC2)c1=O -11.1%
CC(NC(=O)C1CCOCC1)c1nnc2n1CCN(Cc1ccc(F)cc1)CC2 (configuration not stated) -19.4%
O=C1CCN(Cc2cccnc2)CCN1[C@H](CO)Cc1ccccc1 -10.9%
CC(C)(O)C1CC[C@@]2(C)C3CCC4[C@@]5(C)CCCC(C)(C)C5C(O)C[C@]4(C)[C@]3(C)CC[C@@H]12 (some centres not stated) -13.1%
